Each structure is given as a SMILES string. About 120 (0.25%) of roughly 48,000 compounds were called active. About 4% were inconclusive and are not listed. Calls follow the shape of the dose curve; as a rule, active = well fitted activation curve with a large enough effect; inconclusive = small, poorly fitted or top-dose-only effect, or another doubt; inactive = no such curve, though single readings can be large or run the other way. The list shows a part of the results.

The nature of this assay: Primary qHTS for Identification of Small Molecule Activators of Huntingtin-Antisense Promoter Activity. Also: nearly all actives have a fitted effect of over 55% in size. The note with it: HEK293 HTT-AS promoter firefly luciferase reporter (activity 0% = vehicle and -100% = no light), 24 h; series mostly up to 57.5 µM; activity change, positive = activation: at the top concentration. The gist of the method:
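Firefly luciferase signal from promoter-reporter HEK293 cells was scaled between vehicle (0%) and zero RLU (-100%). Compounds were tested at final concentrations of up to 57.5 uM over 24 h at 37 degrees C. PTC124 at 50 uM final served as control inhibitor.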
(In general: qHTS replaces the single test concentration by a dilution series.)
Regarding `CCC1(C)CC(=O)NC1=O` (stereo unspecified), the activity change, positive = activation result is “inactive”. Take `CCN(CCCNC(=O)CSc1cc(=O)n(C)c2cc(Cl)ccc12)c1ccccc1`: the “activity change, positive = activation” value is inactive: -22%. For `Cc1cc(=O)n2nc(N3CCC(C(=O)NCc4ccccc4F)CC3)sc2n1`, the “activity change, positive = activation” value is inactive: -5.58%. `CN1CCN(CCNC(=O)c2cnn(-c3cccc(Cl)c3)c2C2CCN(C(=O)OC(C)(C)C)CC2)CC1`: the “activity change, positive = activation” value is inactive: -17.8%. On to `COc1ccc(CN(C)c2ccc(-c3nc(C)no3)cc2[N+](=O)[O-])cc1`, for which the “activity change, positive = activation” value is inactive: -36.4%. Consider `Cc1ccc(NC(=O)CSc2ncc3c(n2)-c2ccccc2N(C)S3(=O)=O)c(Cl)c1`, for which the “activity change, positive = activation” value is inactive: -38.7%. For `COc1ccc2nc(SCc3ncc(C)c(OC)c3C)[nH]c2c1`, the “activity change, positive = activation” value is inactive: 9.27%. Turning to `CCC(CC)C(=O)Nc1cccc(-c2nc3ncccn3c2C)c1`, the “activity change, positive = activation” value was inactive: 9.3%. The same measure for `CCc1ccc(CNC(=O)Cn2nc(C)c3c(C)n(-c4ccc(C)cc4)nc3c2=O)cc1`: inactive: -9.43%; for `CCC1CN(C(=O)N2CCC(C(=O)NCCCc3ccccc3)CC2)c2ccccc2O1` (stereo unspecified): inactive: -36.1%; for `CN(C)c1ccc(CNC(=O)Cn2c(=O)oc3cc(S(=O)(=O)NCc4ccccc4)ccc32)cc1`: inactive: -22.4%.

On to `CCCC12CN3CC(C)(CN(C1)C3c1cn(CC)c3ccccc13)C2=O` (stereo unspecified), for which the “activity change, positive = activation” value is inactive: 4.65%.

`CCN1CCN(c2cc(C)c3cc(NC(=O)c4cc(Br)ccc4Cl)ccc3n2)CC1`: the “activity change, positive = activation” value was inactive: -18.7%. Next, `COCCCNC(=O)CSc1nc(-c2ccc(OC)cc2)[nH]c1-c1ccc(OC)cc1`: inactive: -15.8%; `COc1ccc2oc(=O)cc(CN3CCN(c4ccccc4OC)CC3)c2c1`: inactive: -17.2%. `CCOC(=O)c1c(C)[nH]c(CCC(=O)Nc2ccccc2OCC)c1C`: the “activity change, positive = activation” value was inactive: -10.3%. The same measure for `O=C(NCc1ccccc1Cl)c1ccc2nc(Cc3ccccc3)oc2c1`: inactive: -11.8%; for `CCC(=O)N1c2ccccc2CC1C(=O)NCCN1CCN(c2cccc(Cl)c2)CC1` (stereo unspecified): inactive: -20.2%. For `CC(=O)N1CCCc2cc(S(=O)(=O)N3CCC(C(=O)NCc4ccccc4Cl)CC3)ccc21`, the “activity change, positive = activation” value is inactive: -16.1%. Consider `COc1ccc(CNC(=O)c2ccc(CS(=O)(=O)c3ccc(OC)cc3)o2)cc1`, for which the “activity change, positive = activation” value was inactive: -20.5%. Next, `COc1ccc(C(=O)Nc2cc3cc(Cl)ccc3oc2=O)cc1OC`: inactive: -5.87%; `Cc1nn(CCC(=O)N2CCN(c3ccccc3F)CC2)c(C)c1S(=O)(=O)N1CCCC1`: inactive: -18%.

With `CCOC(=O)c1cc2c(=O)n3ccccc3nc2n(CCCOC)c1=NC(=O)c1c(-c2ccccc2Cl)noc1C`, the “activity change, positive = activation” value is inactive: -18.3%. Consider `CCCS(=O)(=O)NCCc1csc2nc(-c3ccc(C)cc3)nn12`, for which the “activity change, positive = activation” value is inactive: -27.3%. In the case of `CCOc1ccc(NC(=O)C2CCCN(c3nn4cc(-c5ccc(OC)cc5)nc4s3)C2)cc1` (stereo unspecified), the “activity change, positive = activation” value is inactive: -32.7%. Next, `Cc1nc2nc(C)c(NS(=O)(=O)c3ccc(F)cc3)c(=O)n2[nH]1`: inactive: -4.3%; `O=C(Cn1cnc(S(=O)(=O)N2CCCC2)c1)Nc1cccc(F)c1`: inactive: -10.6%. Next, `Cc1ccccc1OCCCn1c(CCNC(=O)C2CCCCC2)nc2ccccc21`: inactive: -21.8%; `Cc1ccc(-n2ncc(C(=O)N3CCN(C4CCCCC4)CC3)c2C2CCN(C(=O)OC(C)(C)C)CC2)cc1C`: inactive: -2.56%; `CN(C(=O)Cn1c(=O)n(CCC(=O)NCc2ccc3c(c2)OCO3)c(=O)c2sccc21)c1ccccc1`: inactive: -9.18%.

Take `Cc1ccc(NC(=O)c2sc3nc4n(c(=O)c3c2C)CCCCC4)c(Br)c1`: the “activity change, positive = activation” value was inactive: -3.59%.

For the compound `COCCN(Cc1ccco1)C(=O)c1cc2c(Cl)nc3ccc(C)cc3c2s1`, the “activity change, positive = activation” value was inactive: -7.4%. Next, `CCN(CC)CCCNC(=O)CSc1nc2nc(C)c(Cc3ccccc3C)c(C)n2n1`: inactive: 10.1%; `COc1ccc(NC(=O)Cn2nc(SC)c(S(=O)(=O)c3ccc(C)cc3)c2N)cc1OC`: inactive: -9.27%.

`COc1ccc(-n2nc(C(=O)NCCCOC(C)C)c3c4ccccc4n(C)c3c2=O)cc1`: the “activity change, positive = activation” value is inactive: -0.12%.

Turning to `O=C(Nc1c(Cl)cccc1Cl)c1cccc2c1C(=O)N(C1CCCCC1)C2`, the “activity change, positive = activation” value was inactive: 2.36%. Next, `O=C(O)c1ccc2oc(=O)n(Cc3ccccc3)c2c1`: inactive: 1.94%; `Fc1ccccc1N1CCN(c2ncnc3c2nc2n3CCCCC2)CC1`: inactive: -31%; `CCC(=O)N1CCc2cc(Br)cc(S(=O)(=O)CCC(=O)N(C)c3cccc(C)c3)c21`: inactive: -4.53%. As to `CCOc1cc(C2C(C(=O)Nc3ccccc3)=C(C)Nc3ncnn32)cc(Br)c1O` (stereo unspecified), the “activity change, positive = activation” value was inactive: -20%. With `Cc1cc2c(cc1S(=O)(=O)N(CCO)Cc1ccccc1)OCC(=O)N2`, the “activity change, positive = activation” value is inactive: -8.81%.

As to `COc1ccc(NC(=O)CN2C(=O)CSc3ccc(S(=O)(=O)N(C)C)cc32)cc1OC`, the “activity change, positive = activation” value was inactive: 6.22%. Next, `CCNS(=O)(=O)c1cc(-c2nnc(Nc3cccc(C(F)(F)F)c3)c3ccccc23)ccc1C`: inactive: -42.3%. On to `O=C(NC(Cc1cc(=O)[nH]c2ccccc12)C(=O)O)c1ccc(Cl)cc1` (stereo unspecified), for which the activity change, positive = activation entry was “inactive”. As for `CCc1cccc(CC)c1N(COC)C(=O)Cn1c(CC)nc2ccccc21`, the “activity change, positive = activation” value was inactive: 21.5%.

In the case of `Cc1ccc(C)c(NC(=O)CCS(=O)(=O)c2cccc3nsnc23)c1`, the “activity change, positive = activation” value was inactive: -15.3%. Regarding `Cc1ccc(NC(=O)Cn2c(CCC(=O)O)ccc2-c2cccs2)cc1Cl`, the “activity change, positive = activation” value was inactive: -19.8%.

For the compound `Cn1c(=O)oc2cc(S(=O)(=O)N3CCCC(C(=O)N4CCN(c5ccc(Cl)cc5)CC4)C3)ccc21` (stereo unspecified), the “activity change, positive = activation” value was inactive: -33%. On to `Cc1ccc(C)c(N2CCN(C(=O)C3CCN(S(=O)(=O)c4ccc5[nH]c(=O)oc5c4)CC3)CC2)c1`, for which the “activity change, positive = activation” value is inactive: -31.2%.

For `CCc1ccc2nc(N3CCN(C(=O)c4ccccc4)CC3)sc2c1`, the “activity change, positive = activation” value is inactive: -12%. With `Cc1cccc(N2CCN(C(=O)CCCn3c(=O)[nH]c4ccsc4c3=O)CC2)c1C`, the “activity change, positive = activation” value was inactive: -27.3%. Turning to `CCCCCCc1c(C)c2c(cc(C)c3c(C)c(C)oc32)oc1=O`, the “activity change, positive = activation” value was inactive: -28.3%. The same measure for `O=C1CC(c2nc3ccccc3n2CCC2CCCCC2)CN1c1ccccc1Cl` (stereo unspecified): inactive: -22.4%; for `Oc1c(C(c2ccccc2F)N2CCC3(CC2)OCCO3)sc2nc(-c3ccco3)nn12` (stereo unspecified): inactive: -9.7%. The same measure for `CCCCN(C(=O)Nc1ccc(Cl)cc1)C1CCN(C(C)=O)CC1`: inactive: 1.52%.

As to `CC(=O)c1cccc(NC(=O)C2=CC(c3ccc(F)cc3)=NS(=O)(=O)N2C)c1`, the “activity change, positive = activation” value was inactive: -22.8%.

With `O=C(NC1CCCCC1)c1ccc(CSc2nc3ccncc3n2Cc2ccccc2)cc1`, the “activity change, positive = activation” value is inactive: -3.88%. Next, `Cc1ccc2onc(CC(=O)N3CCN(c4ccc(Cl)cc4)CC3)c2c1`: inactive: -13.9%. Next, `CCN(c1ccc(Cl)cc1)S(=O)(=O)c1nnc(NC(=O)c2ccco2)s1`: inactive: -32.7%. Next, `COc1ccc(OC)c(CNC(=O)c2ccc(Sc3ccc(Cl)cc3)c(NC(C)=O)c2)c1`: inactive: -27.2%; `O=C(NCCc1ccccc1)c1ccc(Cn2c(=O)c3cccn3c3cccnc32)cc1`: inactive: -17.7%. As to `COc1ccc(Nc2nc3c(S(=O)(=O)c4ccccc4)nnn3c3ccc(Cl)cc23)c(OC)c1`, the “activity change, positive = activation” value was inactive: 11.9%. Next, `CC(C)(C)NC[C@H](O)COc1cccc2c1CCCC2=O`: inactive: -10.6%; `CC(C)c1ccc(NC(=O)c2cn(C3CCCCC3)c(=O)c3c2c2ccccc2n3C)cc1`: inactive: -15.9%.

Take `Cc1ccccc1NC(=O)N1CCc2cc(S(=O)(=O)N3CCC(C)CC3)ccc21`: the “activity change, positive = activation” value was inactive: 2.57%. Next, `CC(C)c1cc(C(C)C)c(CC(=O)NS(=O)(=O)Oc2c(C(C)C)cccc2C(C)C)c(C(C)C)c1`: inactive: -9.75%; `COc1ccc(-c2nc(C)c(CCNC(=O)c3ccc(F)c(F)c3)s2)cc1`: inactive: 4.44%. The same measure for `COc1ccccc1C1=NS(=O)(=O)N(C)C(C(=O)Nc2cc(OC)c(OC)c(OC)c2)=C1`: inactive: -9.52%. Next, `CC(C)Cn1cc(NC(=O)NCc2ccccc2)c2ccccc2c1=O`: inactive: -16.5%; `Cc1ccc2c(c1)c1c(c(=O)n(-c3cccc(Cl)c3)c(=O)n1CC(=O)c1ccc(Cl)cc1)n2C`: inactive: -7.56%; `CCCCn1c(=N)c(S(=O)(=O)c2ccccc2)cc2c(=O)n3cccc(C)c3nc21`: inactive: 5.54%.

Take `Cc1nc2nc(SCC(=O)Nc3cccc(Cl)c3)nn2c(C)c1Cc1ccccc1`: the “activity change, positive = activation” value is inactive: -31.4%.

Turning to `COC(=O)c1cccc(NC(=O)N(C)CCc2c(C)nn(C)c2C)c1`, the “activity change, positive = activation” value was inactive: -0.826%. Turning to `Cc1ccc(CNC(=O)c2cccc(N3CCCS3(=O)=O)c2)cc1`, the “activity change, positive = activation” value was inactive: -22.5%. Next, `CN(C(=O)CSc1nc2ccc(NC(=O)c3ccccc3F)cc2s1)c1ccccc1`: inactive: -39.6%; `C[N+](C)(C)CCOC(N)=O`: inactive: -7.63%. As for `CCCCn1cc(S(=O)(=O)c2ccc(OCC)cc2)c(=O)c2cc(OC)c(OC)cc21`, the “activity change, positive = activation” value is inactive: 2.54%.

On to `CCc1ccc(-n2nc3ccc(NC(=O)c4cc(Cl)c(OC)c(Cl)c4)cc3n2)cc1`, for which the “activity change, positive = activation” value was inactive: -3.36%. Next, `CCOc1ccc(CNC(=O)Cn2nc(C)n3cccc3c2=O)cc1`: inactive: -0.218%; `Cc1ccc(NC(=O)CN(CCc2ccccc2)S(=O)(=O)c2ccccc2)c(C)c1`: inactive: -25.4%; `COc1ccc(CN2CCc3nc(Nc4ccccc4)ncc3C2)c(OC)c1OC`: inactive: -24.9%. The same measure for `Cc1ccc(CNC(=O)Cn2c(=O)n(Cc3ccccc3)c(=O)c3c2c2cc(C)ccc2n3C)cc1`: inactive: -9.08%; for `COc1cc(N2C(=O)CSC23C(=O)N(C)c2ccccc23)cc(OC)c1OC` (stereo unspecified): inactive: -6.86%. In the case of `CCOc1ccc(N2CC(C)Cn3c2nc2c3c(=O)n(CC(=O)O)c(=O)n2C)cc1` (stereo unspecified), the “activity change, positive = activation” value is inactive: -0.964%. Next, `COCCN1Cc2cccc(C(=O)Nc3ccc(C)c(F)c3)c2C1=O`: inactive: -12%.

Regarding `Cc1cc(C)cc(NC(=O)C(=O)NCC(c2ccc3c(c2)OCO3)N2CCOCC2)c1` (stereo unspecified), the “activity change, positive = activation” value is inactive: -2.99%. Next, `Cc1ccc(CNC(=O)CCS(=O)(=O)c2cc3c(cc2Cl)NC(=O)CO3)cc1`: inactive: -7.88%. The same measure for `COc1ccc(N2CCN(CC(O)COc3ccc(C)cc3C)CC2)cc1` (stereo unspecified): inactive: 2.56%; for `CC1=C(c2ccc(C)cc2)S(=O)(=O)NC1=NCCCN1CCN(c2cc(C)ccc2C)CC1`: inactive: -35.2%. Turning to `Cc1ccc(Cl)cc1N1CCN(C(=O)CN2C(=O)COc3ccc(S(=O)(=O)N4CCC(C)CC4)cc32)CC1`, the “activity change, positive = activation” value is inactive: -17.4%. Next, `COc1ccc(N2CCN(c3ncnc4c3cnn4-c3ccc(C)c(Cl)c3)CC2)cc1`: inactive: 17.9%. Turning to `CC(C)(C)C(=O)NC1(C(F)(F)F)NC(=O)N(c2ccc(F)cc2)C1=O` (stereo unspecified), the “activity change, positive = activation” value was inactive: -8.13%. With `O=C(NCc1ccc(Cl)cc1)c1ccc(NC(=O)N2CC3CCCN3c3ccccc32)cc1` (stereo unspecified), the “activity change, positive = activation” value is inactive: -23.8%. The same measure for `Cc1nn(C(=O)c2ccccc2)c(C)c1S(=O)(=O)N1CCOCC1`: inactive: -11.1%; for `COc1ccc(CNC(=O)c2ccc(-c3nc(CSc4ccc(C)cc4)c(C)o3)cc2)cc1OC`: inactive: 0%; for `CCC(=O)N1CCc2cc(S(=O)(=O)NC(C(=O)NCc3ccccc3Cl)C(C)C)ccc21` (stereo unspecified): inactive: 20.1%.
